From article PMC12136788
The list shows a part of the results.

B1: chr2:96185838:96185916:-|3pUTR|ENSG00000084090|msi1_unk|FALSE|overlapping (ssRNA)
RNA: GGGAGUUCUACAGUCCGACGAUCUGGGAGACUAAUCCUUUUAGAUAGUAGCUUUUUGAUGCUCAAAACAUCACAUUUAAAUUUAGUUUAAAAAUUUUUUAACUUUUGUGUCAAAUAGGAGUUGAGGAAUUGAGCAGGAUUCUACAACAGAGGAUUGAGCAUCA
B2: chr19:22391518:22392981:-|CDS|ENSG00000197360|control|control|control (ssRNA)
RNA: GGGAGUUCUACAGUCCGACGAUCCAUAAGAGAAUUCAUGCUGGAGAGAAAUUCUACAAAUGUGAAGUAUGUAGCAAAGCCUUUAGCCGGUUCUCACACCUUACUACACAUAAGAGAAUUCAUACUGGAGAGAAGCCCUACAAACAACAGAGGAUUGAGCAUCA
B3: chr22:42060953:42061055:-|CDS|ENSG00000198951|unk|FALSE|unique (ssRNA)
RNA: GGGAGUUCUACAGUCCGACGAUCCCAGGAAAAAUCUCUCAUCGAAGUGUACAUGCGGCCUCUGUCCAACAAGGCUAGCGCCUUAGUCUUCUUCAGCUGCAGGACCGAUAUGCCUUAUCGCUACCACUCCUCCCUUGGCCAGCUCAACAGAGGAUUGAGCAUCA
B4: chr2:150470103:150470218:-|CDS|ENSG00000115963|unk|FALSE|unique (ssRNA)
RNA: GGGAGUUCUACAGUCCGACGAUCAUGGCCAAACAGAUUGGAGCAGCUACUUAUAUCGAAUGCUCAGCUUUACAGUCGGAAAAUAGCGUCAGAGACAUUUUUCACGUUGCCACCUUGGCAUGUGUAAAUAAGACAAAUAAAAACCAACAGAGGAUUGAGCAUCA
B5: chr8:74853834:74853946:+|3pUTR|ENSG00000137558|unk|FALSE|unique (ssRNA)
RNA: GGGAGUUCUACAGUCCGACGAUCAAGUGCUUUUUUUUUUCUGAAUUAAUUAGGUAUUGGUAAAAUAUAUUUUUAAAUUUAGUUAGCUUUAUAAACACAAUUAGAAUUACAAUUAAUUAACAGAGGUAUAAUUGUCUCACUUUCCAACAGAGGAUUGAGCAUCA
B6: ENSG00000186472:stop:overlap|stop_codon|ENSG00000186472|stop_codon|NA|stop_codon (ssRNA)
RNA: GGGAGUUCUACAGUCCGACGAUCUUUCUUGUAAAUGGAAAUUUUAUCAUGUGUAUAGAUUCUGUAGCAUGCUUUUCUUUAUUUAGUUUUACUUUAUUCCUUUAUUGUUCUGUUUCUUGAUUGUUUGCUUGAUUUGUUUGGUGUCAACAGAGGAUUGAGCAUCA
B7: chr10:97759570:97759671:+|3pUTR|ENSG00000155256|msi1|FALSE|unique (ssRNA)
RNA: GGGAGUUCUACAGUCCGACGAUCGACUGAGCGAGUGGACUUAGGGCUGGGCAGGCAGUAGCCACCAGAGGGCAGCAGCGAACUAGGCCAGGCCUGACUGGGGUCUGAAGAUCAGGGUCAGUGUGGCUGUGCCUGGGAAUUCCACAACAGAGGAUUGAGCAUCA
B8: chr19:57572896:57572997:-|CDS|ENSG00000083817|unk|FALSE|unique (ssRNA)
RNA: GGGAGUUCUACAGUCCGACGAUCCAUCGGAGAAUCCACACUGGAGAAAGGCCUUAUGUGUGUGGUCAGUGUGGGAAAUCAUUUAGCCAAAGAGCCACCCUCAUUAAACAUCACAGAGUUCACACUGGAGAAAGGCCUUACGAGCAACAGAGGAUUGAGCAUCA
B9: chr14:52864448:52864598:-|CDS|ENSG00000073712|unk|total|mutant (ssRNA)
RNA: GGGAGUUCUACAGUCCGACGAUCGAUGGCAGCCUGCAGAUCCGCCUCCAAAGGCAAGACCAUGGCGGACAGUUCUUACAACUCCGAAGUUCAGAAUAUUCUUUCCUUUCUGAAGAUGCAGCAUUUAAACCCAGAUCCUCAGUUCAACAGAGGAUUGAGCAUCA
B10: chr3:113720845:113720875:-|3pUTR|ENSG00000121579|msi1_unk|FALSE|overlapping (ssRNA)
RNA: GGGAGUUCUACAGUCCGACGAUCCCUUUUUCUUCAGUAAACCCAACAAUAGUCUAACCUUAAAAAUUGAGUUGAUGUCCUUAUAGGUCACUACCCCUAAAUAAACCUGAAGCAGGUGUUUUCUCUUGGACAUACUAAAAAAUACAACAGAGGAUUGAGCAUCA
B11: ENSG00000176244:stop:overlap|stop_codon|ENSG00000176244|stop_codon|NA|stop_codon (ssRNA)
RNA: GGGAGUUCUACAGUCCGACGAUCAAGAUGCGACGAGUGCCUAUAUUUCUAAAGCAAAGGAGCUGAUAGAAAAAUACGGAAUUUAGAAUACAGCAUAUGAGGAAUUUUUCCUUUUGAAGACUUCCAAAUGCUAUCAUGACCUAACAACAGAGGAUUGAGCAUCA
B12: ENSG00000105576:stop:overlap|stop_codon|ENSG00000105576|stop_codon|NA|stop_codon (ssRNA)
RNA: GGGAGUUCUACAGUCCGACGAUCAGUUCUCUGAGCAAUUCCCGCCGCUGCUCAAGGAGAGGCUGGCGGCUUUCUAUGGGGUCUAGGUGAUCAUGGAGACUGCCAGGUUUCUGUCUGCGUCGUCGUCGGAGGGAUUACUGGGGACAACAGAGGAUUGAGCAUCA
B13: chr1:169376695:169376796:+|CDS|ENSG00000117475|unk|FALSE|unique (ssRNA)
RNA: GGGAGUUCUACAGUCCGACGAUCUCUUCAGCUAGGGAAAAUGCUCACUGAAAAAGCAAUGGAAGUUAAAGCUGUAAGAAUAUUAGUUCCCAAAGCUGCUAUAACUCAUGAUAUCCCCAACAAAAAUACAAAGGUUAAGUCUCUCAACAGAGGAUUGAGCAUCA
B14: chr11:71804996:71807656:-|three_prime_utr|ENSG00000289716|control|control|control (ssRNA)
RNA: GGGAGUUCUACAGUCCGACGAUCGAGCCCAAGGAUGAAGGGGGCUCCCUCACUCUGUUACUGUGAAGAGGAAGCCUGAGGUGUAGCAGGCCCAGGCCCCAGAAGUAUGGAAAAAAAUGAGGUAGGGAGGGAGGGGACCUCAGGCAACAGAGGAUUGAGCAUCA
B15: chr7:137879121:137879144:-|3pUTR|ENSG00000182158|msi1_unk|FALSE|overlapping (ssRNA)
RNA: GGGAGUUCUACAGUCCGACGAUCUAAUCCCCAACCUACUUUUAGUUUUUUUGUUUUUUUUUUAUGGUUAAAAGUAACUUUUGUAGUUUAAAAAAAUCUUUCCUCUUUCAUAUAAAUAAGAAGUGGAAAUUGCCUUUUUAUUGUCAACAGAGGAUUGAGCAUCA
B16: chr10:92030471:92030572:+|3pUTR|ENSG00000095564|unk|total|mutant (ssRNA)
RNA: GGGAGUUCUACAGUCCGACGAUCUAUUUUUUUAUUAACUAUUUAUUUGCCCGUUCCAUAAACCAGCUCUUUAACACCGCUUACCGUAAUUGAUAUUUUCUCCGAAUAAGUACAGAGCAAUAUAUCAUUAAAGGGCUAUGAAGGCAACAGAGGAUUGAGCAUCA
B17: chr7:101138926:101139078:+|3pUTR|ENSG00000106366|msi1|total|mutant (ssRNA)
RNA: GGGAGUUCUACAGUCCGACGAUCUAUUUUAAAGACCAAUUUAUGGGAGAAUUGCACACAGAUGUGAAAUGAAUGUAAUCUAACCGAAGCCUAAUCAGCCCACCAUGUUCUCCACUGAAAAAUCCUCUUUCUUUGGGGUUUUUCCAACAGAGGAUUGAGCAUCA
B18: chr1:246907611:246907713:-|CDS|ENSG00000153207|unk|FALSE|bound_elsewhere (ssRNA)
RNA: GGGAGUUCUACAGUCCGACGAUCUGAAGUACCACACAUUAGAGAAAGUGUAAUGAGACAAGGGCGCCAUCUGUGUUUCCAGUUAGUAAGUCCAACAGGAACAGCUGUUUCAACUCUUAGUUACAUAAGCAGGACAAAUCAGCUCAACAGAGGAUUGAGCAUCA
B19: chr6:26414640:26414744:+|3pUTR|ENSG00000026950|unk|total|mutant (ssRNA)
RNA: GGGAGUUCUACAGUCCGACGAUCCAGGCAGAGCAAAUACCCCCGAGAUUCUCUGUGAUACCGGAAAUUUGGAUGAAGGGAGCCCGAAGAAAUACAGGGAUUUUUUUUUUUUUUUAAGAUGGAGUCUUACUCUGUUGCCCGGCUCAACAGAGGAUUGAGCAUCA
B20: chr7:139079551:139079652:-|CDS|ENSG00000105939|unk|FALSE|bound_elsewhere (ssRNA)
RNA: GGGAGUUCUACAGUCCGACGAUCAAUGCUGAUGGAGUGGCCACAGAUAUAACUUCUACCAGAUCCUUAAAUUACAAAAGCACUAGCAGCGGUCACAGAGAAAUAUCAUCACCUAGGAUUCAGGAUGCUGGACCUGCUUCCCGACAACAGAGGAUUGAGCAUCA
B21: chr1:162785649:162785750:+|3pUTR|ENSG00000162733|unk|FALSE|unique (ssRNA)
RNA: GGGAGUUCUACAGUCCGACGAUCUGAAUGUUGUUUUUUUGAAUGAACAUAAGAUAGAAACAAAAACUUCUCAUCCAGUUAACUAGAGUGAAUGUAGGGAGAAUUGUUUUGCUUGUAACAUGGAGAGUUUAUUUUCAAGUGAGGCAACAGAGGAUUGAGCAUCA
B22: ENSG00000169762:stop:overlap|stop_codon|ENSG00000169762|stop_codon|NA|stop_codon (ssRNA)
RNA: GGGAGUUCUACAGUCCGACGAUCUCCUCACUUUGCCUUGCUAUGGCUUAAGACCGAAGGGAGGAGCACUUUCACUUCCUUUAUAGAAUGGAAUGUGGUGGCACAGGGACUCCUUGUGGGACAGACGUUUGCUUCAGCCUGCCCCAACAGAGGAUUGAGCAUCA

biological target: MSI1 full-length (mouse, UniProt Q61474 1-362); test: nsRBNS (natural sequence RNA bind-n-seq); RBNS binding buffer (assumed for nsRBNS): 25 mM Tris pH 7.5, 150 mM KCl, 3 mM MgCl2, 0.01% Triton X-100, 500 ug/ml BSA, 20 U/ml SUPERase-In, 4 C; UNK is unkempt and MSI1 is Musashi-1; names of the RNAs are library labels; protein concentration not given here; high values mean tight binding
Sequence of UniProt Q61474 (Q61474 whole entry): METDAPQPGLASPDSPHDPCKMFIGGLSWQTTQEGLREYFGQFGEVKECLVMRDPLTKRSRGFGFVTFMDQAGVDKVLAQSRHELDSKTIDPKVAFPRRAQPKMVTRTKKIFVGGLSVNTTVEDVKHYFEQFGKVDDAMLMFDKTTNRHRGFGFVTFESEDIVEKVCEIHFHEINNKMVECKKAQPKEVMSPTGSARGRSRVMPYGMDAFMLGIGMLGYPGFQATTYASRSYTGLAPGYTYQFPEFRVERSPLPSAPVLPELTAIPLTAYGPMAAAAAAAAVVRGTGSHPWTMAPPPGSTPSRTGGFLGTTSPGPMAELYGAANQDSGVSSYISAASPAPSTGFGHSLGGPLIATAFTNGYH

Binder | binding signal [enrichment R]
B1 | 8.29
B2 | 0.435
B3 | 0.623
B4 | 0.499
B5 | 47.1
B6 | 0.35
B7 | 0.819
B8 | 0.52
B9 | 0.508
B10 | 4.66
B11 | 0.512
B12 | 0.344
B13 | 0.662
B14 | 0.777
B15 | 12
B16 | 27.9
B17 | 0.403
B18 | 1.54
B19 | 0.532
B20 | 1.62
B21 | 2.65
B22 | 0.321
